Experimental data published in the supplement of paper PMC8728848.
The other results are listed elsewhere or left out.

Assays:
Experiment in all cases: glycan array binding signal (z-score within array); higher = stronger binding
Conditions in all cases: glycan notation: IUPAC condensed, linker removed
[1] = target: Neu5Ac(a2-3)[GalNAc(b1-4)]Gal(b1-4)Glc
How it was run: (§1)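 Glycan array binding is given as a within-array Z-score, which can be read as non-binding when negative. The arrays, 3228 of them, came from the Consortium for Functional Glycomics database and were retained only where the protein sequence was available. Z-scores were averaged across arrays of the same protein sequence at different concentrations or buffers and across linkers.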

[2] = target: Neu5Ac(a2-3)[GalNAc(b1-4)]Gal(b1-4)GlcNAc
How it was run: as §1

[3] = target: Neu5Ac(a2-3)[GalNAc(b1-4)]Gal(b1-4)GlcNAc(b1-3)GalNAc
How it was run: as §1

[4] = target: Neu5Ac(a2-3)[Neu5Ac(a2-6)]GalNAc
How it was run: as §1

[5] = target: Neu5Ac(a2-6)Gal
How it was run: as §1

[6] = target: Neu5Ac(a2-6)Gal(b1-3)GlcNAc(b1-3)[Gal(b1-4)GlcNAc(b1-6)]Gal(b1-4)Glc
How it was run: as §1

[7] = target: Neu5Ac(a2-6)Gal(b1-4)Glc
How it was run: as §1

[8] = target: Neu5Ac(a2-6)Gal(b1-4)GlcNAc
How it was run: as §1

[9] = target: Neu5Ac(a2-6)Gal(b1-4)GlcNAc(b1-2)Man(a1-3)Man(b1-4)GlcNAc(b1-4)GlcNAc
How it was run: as §1

[10] = target: Neu5Ac(a2-6)Gal(b1-4)GlcNAc(b1-2)Man(a1-3)[Gal(b1-4)GlcNAc(b1-2)Man(a1-6)]Man(b1-4)GlcNAc(b1-4)GlcNAc
How it was run: as §1

[11] = target: Neu5Ac(a2-6)Gal(b1-4)GlcNAc(b1-2)Man(a1-3)[GlcNAc(b1-2)Man(a1-6)]Man(b1-4)GlcNAc(b1-4)GlcNAc
How it was run: as §1

[12] = target: Neu5Ac(a2-6)Gal(b1-4)GlcNAc(b1-2)Man(a1-3)[GlcNAc(b1-2)Man(b1-4)GlcNAc(b1-2)Man(a1-6)]Man(b1-4)GlcNAc(b1-4)GlcNAc
How it was run: as §1

[13] = target: Neu5Ac(a2-6)Gal(b1-4)GlcNAc(b1-2)Man(a1-3)[Man(a1-6)]Man(b1-4)GlcNAc(b1-4)GlcNAc
How it was run: as §1

[14] = target: Neu5Ac(a2-6)Gal(b1-4)GlcNAc(b1-2)Man(a1-3)[Neu5Ac(a2-6)Gal(b1-4)GlcNAc(b1-2)Man(a1-6)]Man(b1-4)GlcNAc(b1-4)GlcNAc
How it was run: as §1

[15] = target: Neu5Ac(a2-6)Gal(b1-4)GlcNAc(b1-2)Man(a1-6)Man(b1-4)GlcNAc(b1-4)GlcNAc
How it was run: as §1

[16] = target: Neu5Ac(a2-6)Gal(b1-4)GlcNAc(b1-2)Man(a1-6)[Gal(b1-4)GlcNAc(b1-2)Man(a1-3)]Man(b1-4)GlcNAc(b1-4)GlcNAc
How it was run: as §1

[17] = target: Neu5Ac(a2-6)Gal(b1-4)GlcNAc(b1-2)Man(a1-6)[GlcNAc(b1-2)Man(a1-3)]Man(b1-4)GlcNAc(b1-4)GlcNAc
How it was run: as §1

[18] = target: Neu5Ac(a2-6)Gal(b1-4)GlcNAc(b1-2)Man(a1-6)[Man(a1-3)]Man(b1-4)GlcNAc(b1-4)GlcNAc
How it was run: as §1

[19] = target: Neu5Ac(a2-6)Gal(b1-4)GlcNAc(b1-3)Gal(b1-3)GlcNAc
How it was run: as §1

[20] = target: Neu5Ac(a2-6)Gal(b1-4)GlcNAc(b1-3)Gal(b1-4)GlcNAc
How it was run: as §1

[21] = target: Neu5Ac(a2-6)Gal(b1-4)GlcNAc(b1-3)Gal(b1-4)GlcNAc(b1-3)Gal(b1-4)GlcNAc
How it was run: as §1

[22] = target: Neu5Ac(a2-6)Gal(b1-4)GlcNAc(b1-3)Gal(b1-4)[Fuc(a1-3)]GlcNAc(b1-3)Gal(b1-4)[Fuc(a1-3)]GlcNAc
How it was run: as §1

[23] = target: Neu5Ac(a2-6)Gal(b1-4)GlcNAc(b1-3)GalNAc
How it was run: as §1

[24] = target: Neu5Ac(a2-6)Gal(b1-4)GlcNAc6S
How it was run: as §1

[25] = target: Neu5Ac(a2-6)GalNAc
How it was run: as §1

[26] = target: Neu5Ac(a2-6)GalNAc(b1-4)GlcNAc
How it was run: as §1

[27] = target: Neu5Ac(a2-6)GlcNAc(b1-4)GlcNAc
How it was run: as §1

[28] = target: Neu5Ac(a2-6)GlcNAc(b1-4)GlcNAc(b1-4)GlcNAc
How it was run: as §1

[29] = target: Neu5Ac(a2-8)Neu5Ac
How it was run: as §1

[30] = target: Neu5Ac(a2-8)Neu5Ac(a2-3)Gal(b1-3)GalNAc(b1-4)[Neu5Ac(a2-8)Neu5Ac(a2-3)]Gal(b1-4)Glc
How it was run: as §1

[31] = target: Neu5Ac(a2-8)Neu5Ac(a2-3)Gal(b1-4)Glc
How it was run: as §1

[32] = target: Neu5Ac(a2-8)Neu5Ac(a2-3)[Gal(b1-3)GalNAc(b1-4)]Gal(b1-4)Glc
How it was run: as §1

[33] = target: Neu5Ac(a2-8)Neu5Ac(a2-3)[GalNAc(b1-4)]Gal(b1-4)Glc
How it was run: as §1

[34] = target: Neu5Ac(a2-8)Neu5Ac(a2-8)Neu5Ac
How it was run: as §1

[35] = target: Neu5Ac(a2-8)Neu5Ac(a2-8)Neu5Ac(a2-3)Gal(b1-4)Glc
How it was run: as §1

[36] = target: Neu5Ac(a2-8)Neu5Ac(a2-8)Neu5Ac(a2-3)[GalNAc(b1-4)]Gal(b1-4)Glc
How it was run: as §1

[37] = target: Neu5Ac(a2-8)Neu5Ac(a2-8)Neu5Ac(a2-8)Neu5Ac(a2-3)[GalNAc(b1-4)]Gal(b1-4)Glc
How it was run: as §1

[38] = target: Neu5Ac(b2-6)Gal(b1-4)GlcNAc
How it was run: as §1

[39] = target: Neu5Ac(b2-6)GalNAc
How it was run: as §1

[40] = target: Neu5Ac9Ac(a2-3)Gal(b1-3)GlcNAc
How it was run: as §1

[41] = target: Neu5Ac9Ac(a2-3)Gal(b1-4)GlcNAc
How it was run: as §1

[42] = target: Neu5Ac9Ac(a2-6)Gal(b1-4)GlcNAc
How it was run: as §1

[43] = target: Neu5Gc(a2-3)Gal(b1-3)GlcNAc
How it was run: as §1

[44] = target: Neu5Gc(a2-3)Gal(b1-3)[Fuc(a1-4)]GlcNAc
How it was run: as §1

[45] = target: Neu5Gc(a2-3)Gal(b1-4)Glc
How it was run: as §1

[46] = target: Neu5Gc(a2-3)Gal(b1-4)GlcNAc
How it was run: as §1

[47] = target: Neu5Gc(a2-3)Gal(b1-4)[Fuc(a1-3)]GlcNAc
How it was run: as §1

[48] = target: Neu5Gc(a2-6)Gal(b1-4)GlcNAc
How it was run: as §1

[49] = target: Neu5Gc(a2-6)GalNAc
How it was run: as §1

[50] = target: Neu5Gc(b2-6)Gal(b1-4)GlcNAc
How it was run: as §1

B1: PpFlo3 (Pichia pastoris) (protein)
chain: MGSSHHHHHHSSGLVPRGSHMQESGNGTTSDTAYACDIGATPFDGFNATIYQYQASDDNSIQDPVFMSTGYLQRNQLHSTTGVTNPGFNIFTAGVATTTLYGIPNVNYQNMLLELKGYFRADASGNYGLSLRNIDDSAILFFGRETAFECCNENLIPLDEAPTDYSLFTIKEGEASTNPDSYTYTQYLEAGRYYPVRTFFANIRTRAVFNFTMTLPDGSELTDFQNYIFQFGALNQ
glycan array binding signal (z-score) [1]: -0.143
glycan array binding signal (z-score) [2]: -0.272
glycan array binding signal (z-score) [3]: -0.111
glycan array binding signal (z-score) [4]: -0.286
glycan array binding signal (z-score) [5]: -0.275
glycan array binding signal (z-score) [6]: -0.283
glycan array binding signal (z-score) [7]: -0.279
glycan array binding signal (z-score) [8]: -0.282
glycan array binding signal (z-score) [9]: -0.274
glycan array binding signal (z-score) [10]: 0.009
glycan array binding signal (z-score) [11]: -0.275
glycan array binding signal (z-score) [12]: -0.266
glycan array binding signal (z-score) [13]: -0.281
glycan array binding signal (z-score) [14]: -0.225
glycan array binding signal (z-score) [15]: -0.261
glycan array binding signal (z-score) [16]: -0.11
glycan array binding signal (z-score) [17]: 4.82
glycan array binding signal (z-score) [18]: -0.242
glycan array binding signal (z-score) [19]: -0.267
glycan array binding signal (z-score) [20]: -0.214
glycan array binding signal (z-score) [21]: -0.219
glycan array binding signal (z-score) [22]: -0.286
glycan array binding signal (z-score) [23]: -0.27
glycan array binding signal (z-score) [24]: -0.269
glycan array binding signal (z-score) [25]: -0.282
glycan array binding signal (z-score) [26]: -0.293
glycan array binding signal (z-score) [27]: -0.261
glycan array binding signal (z-score) [28]: -0.272
glycan array binding signal (z-score) [29]: -0.238
glycan array binding signal (z-score) [30]: -0.017
glycan array binding signal (z-score) [31]: -0.255
glycan array binding signal (z-score) [32]: -0.279
glycan array binding signal (z-score) [33]: -0.223
glycan array binding signal (z-score) [34]: -0.257
glycan array binding signal (z-score) [35]: -0.222
glycan array binding signal (z-score) [36]: -0.274
glycan array binding signal (z-score) [37]: -0.171
glycan array binding signal (z-score) [38]: 0.318
glycan array binding signal (z-score) [39]: -0.261
glycan array binding signal (z-score) [40]: -0.267
glycan array binding signal (z-score) [41]: 1.02
glycan array binding signal (z-score) [42]: -0.283
glycan array binding signal (z-score) [43]: -0.234
glycan array binding signal (z-score) [44]: -0.272
glycan array binding signal (z-score) [45]: -0.276
glycan array binding signal (z-score) [46]: -0.275
glycan array binding signal (z-score) [47]: -0.244
glycan array binding signal (z-score) [48]: -0.229
glycan array binding signal (z-score) [49]: -0.284
glycan array binding signal (z-score) [50]: -0.24
